The campaign covered roughly 340,000 compounds. About 12,000 (3.5%) were called active. Inconclusive results, whose numbers are uncertain, are shown with a selection of clear calls. The call rests on the fitted dose curve; in most records, active means well fitted inhibition curve with a large enough effect; inconclusive means small, poorly fitted or top-dose-only effect, or another doubt; inactive means no such curve, though single readings can be large or run the other way. Potencies of inconclusive entries are left out as doubtful fits. Some compounds were tested as several samples or in several runs, with calls that do not always agree.
Test: qHTS Assay for Inhibitors of Hepatitis C Virus (HCV)
Settings: Huh7.5.1 HCVcc-Cre (HCVcc is cell-culture hepatitis C virus) infection, luciferase reporter, 44 h; activity change, negative = inhibition: at 41.8 µM (top of the series) unless noted
Source text: Hepatitis C virus (HCV) infects about 200 million people in the world. Many infected people progress to chronic liver disease including cirrhosis with a risk of developing liver cancer. To date, there is no effective vaccine for hepatitis C. Current therapy based on interferon is only effective in about half of the patients and is associated with significant adverse effects. The fraction of people with HCV who can complete a successful treatment is estimated to be no more than 10 percent. Recent development of direct-acting antivirals against HCV, such as protease and polymerase inhibitors, is promising but still requires combination with peginterferon and ribavirin for maximal efficacy. In addition, these agents are associated with high rate of resistance and many have significant side effects. Due to the lack of a culture system for infectious HCV, the search for new HCV drugs has been greatly hampered. […] High-throughput screening (HTS) with an infectious HCV system would cover the complete spectrum of potentially druggable targets in all stages of HCV lifecycle, and would have more biological relevance than other cell-based assays. Moreover, targeting several key processes in the viral life cycle may not only increase antiviral efficacy; more importantly, it may also reduce the capacity of the virus to develop resistance to the compound. The goal of this project is to identify novel HCV inhibitors as new therapies for hepatitis C, using a highly sensitive and specific assay platform which is based on a HCV infectious cell culture system established in the laboratory and adapted for high-throughput HCV drug screen. NIH Chemical Genomics Center [NCGC] NIH Molecular Libraries Probe Centers Network [MLPCN] MLPCN Grant: MH095511 Assay Submitter (PI): Jake Liang, NIDDK
The assay will start with plating 1,000 cells/well in 3 µL volume and culture for 4 h. Then 23 nL of compounds from the library collection will be added to each well, followed by adding 2.5 µL of HCVcc-Cre virus (~ 0.5 moi) and further cultured for 44 h before the luciferase assay. A volume of 4.5 µL luciferase substrates will be added to each well and the plates will be incubated at room temperature for 15 min. and then read for 15 sec. for the luciferase activity
On the % scale 0 is the no-effect control and ±100 the full control effect; tags describe the fitted curve by direction and shape.

Structure (SMILES)	Potency	activity change, negative = inhibition
COCC(=O)N(Cc1cc2ccc(C)c(C)c2n2nnnc12)C1CCCC1	inconclusive [inhibitor, single point]	–
CC(C)(C)OC(=O)N1CCN(C(=O)c2[nH]cnc2C(=O)Nc2nccs2)CC1	–	inactive: 17.6%
Cc1cc(C)cc(NC(=O)c2cc(S(=O)(=O)NCc3ccco3)ccc2F)c1	inconclusive [inhibitor, single point]	–
Cc1ccc(S(=O)(=O)NCC(=O)OCC(=O)NCc2cccs2)cc1	–	inconclusive: -78.5% [inhibitor]
O=c1c2ccccc2nc(-c2ccoc2)n1CCc1ccccc1	inconclusive [inhibitor, single point]	–
CCCn1c(C(C)Nc2nc(-c3ccc(Cl)c([N+](=O)[O-])c3)cs2)nc2cc(Cl)c(N3CCCCC3)cc21 (centres undefined)	inconclusive [inhibitor, full curve, poor fit]	–
O=C(NCc1ccco1)C(c1ccco1)N(Cc1cccs1)C(=O)Cn1nnc2ccccc21 (centres undefined)	–	inactive: 18%
CC(C)c1nc(SCC(=O)Nc2ccc(N3CCOCC3)cc2)c2ccccc2n1	inconclusive [inhibitor, single point]	–
Cc1ccc(C(=O)Nc2nc3ccccc3n3nnnc23)cc1	inconclusive [inhibitor, single point]	–
CC(=O)c1ccc(N2CCN(C(=S)Nc3ccccc3)CC2)cc1	inconclusive [inhibitor, single point]	–
Cc1ccc(C(=O)NC(=S)NNC(=O)c2ccccc2[N+](=O)[O-])cc1	–	inactive: -17.1%
CC(=O)N1CCN(C(=O)c2ccc(Cl)c(NC(=O)c3cccs3)c2)CC1	–	inactive: 7.26%
CCOC(=O)C1=C(C)NC2=C(C(=O)CCC2)C1c1cn(Cc2ccc(Cl)cc2Cl)nc1-c1ccccc1 (centres undefined)	inconclusive [inhibitor, partial curve]	–
COc1ccc(SC[C@H](CC(C)C)N2CCN(C)CCC2=O)cc1	–	inactive: -0.735% [at 8.37 µM]
COC(=O)c1ccc(Cn2cnc3c(sc4nc(N5CCOCC5)c5c(c43)CCCC5)c2=O)o1	active: 11.2 µM	–
COC(=O)c1c(NC(=O)c2ccc(C)o2)sc2c1CCCCC2	active: 11.2 µM	–
COc1ccc(OC2CCN(C(=O)Nc3ccc(C)cc3)CC2)cc1	inconclusive [inhibitor, single point]	–
COc1ccc(S(=O)(=O)N2CCCC2c2cccs2)cc1 (centres undefined)	–	inactive: -15.1%
CN(C(=O)CSc1nc2cc([N+](=O)[O-])ccc2n1-c1ccc(F)cc1)C1CCS(=O)(=O)C1 (centres undefined)	inconclusive [inhibitor, single point]	–
CC(C)(C)OC(=O)C[C@@H]1C/C=C\C[C@@H](CC(=O)N(CCO)Cc2ccccc2)C(=O)N[C@H](Cc2c[nH]c3ccccc23)COC1=O	inconclusive [inhibitor, full curve, poor fit]	–
COc1ccccc1NS(=O)(=O)c1ccc(NN=C2CCCCC2)c([N+](=O)[O-])c1	inconclusive [inhibitor, partial curve]	–
Cc1c(Br)c([N+](=O)[O-])nn1C(C)C(=O)N1CCCc2ccccc21 (centres undefined)	–	inactive: 12.4%
CN(CC1CCCO1)S(=O)(=O)c1ccc(C(=O)Nc2ccc([N+](=O)[O-])cc2)cc1 (centres undefined)	inconclusive [inhibitor, single point]	–
COc1ccc(NC(=O)CCc2nc3ccccc3c(=O)[nH]2)cc1S(=O)(=O)N1CCCCC1	–	inactive: -28.1%
CCOC(=O)c1c(C)n(Cc2ccco2)c2ccc(OC)cc12	active: 12.6 µM	–

Structure (SMILES)	Potency	activity change, negative = inhibition
O=C(NC1CCN(S(=O)(=O)c2ccccc2)CC1)c1cccc(F)c1	–	inactive: -1.91%
CCCN1CCC(NCc2cn(C)nc2-c2ccc(Oc3ccccc3)cc2)CC1	active: 11.2 µM	–
O=C(Nc1ccccn1)c1ccc(S(=O)(=O)N2CCCCCC2)cc1	–	inactive: -13.9%
CC(=O)c1ccc(OC(C)C)c(Cc2c(O)[nH]c(=S)[nH]c2=O)c1	–	inactive: -4.34%
COc1cccc(N2CCN(C(=S)Nc3cc(C)cc(C)c3)CC2)c1	inconclusive [inhibitor, single point]	–
Cn1c(SCC(=O)Nc2ccccc2F)nc2c(c1=O)SCC2	active: 6.31 µM	–
Cc1cc(C)c(C)c(S(=O)(=O)NCc2ccc(C(=O)N3CCCCC3)cc2)c1C	inconclusive [inhibitor, single point]	–
COc1ccc(/C=N/NC(=O)COc2ccc(Cl)cc2Cl)cc1Cn1nc(C)cc1C	–	inactive: 0.0316%
Nc1nc2ccc(C(=O)Nc3ccc(N4CCOCC4)cc3)cc2s1	inconclusive [inhibitor, partial curve]	–
O=[N+]([O-])c1ccc(OCC(O)CN(CCO)CCO)cc1 (centres undefined)	–	inactive: 7.98%
CC1=C(C(=O)NC2CCCc3c2cnn3-c2cccc(C)c2C)OCCO1 (centres undefined)	active: 3.55 µM	–
O=C1c2nccnc2C(=O)N1c1ccc(F)cc1	–	inactive: -11.5%
CN(C(=S)NC(=O)c1ccc(Br)o1)c1ccccc1	–	inactive: 1.98%
CCc1cc2c(=O)n(-c3ccc(C)cc3)cnc2s1	inconclusive [inhibitor, partial curve]	–
CC1=C(C(=O)OCc2ccc3c(c2)OCO3)C(c2ccccc2OCc2ccccc2)NC(=O)N1 (centres undefined)	active: 10 µM	–
CCN(CC)C(=O)[C@H]1CC(CC(=O)NCCN2CCOCC2)C(=O)N2CCc3c([nH]c4ccc(OC)cc34)[C@]12C (some centres undefined)	–	inactive: 3.76%
COc1ccc(C(=O)CSc2nc(C)cc(C)n2)cc1C	inconclusive [inhibitor, partial curve]	–
Nn1c(SCC(=O)Nc2ccccc2F)nnc1C1CCCCC1	–	inactive: 16.5%
Cc1csc(Nc2nc(N)c(C(=O)Nc3ccccc3)o2)n1	–	inactive: -27.8%
N#Cc1c(NCCN)nc(NCc2ccccc2)c2c1CCN(Cc1ccccc1)C2	inconclusive [inhibitor, single point]	–
Cc1ccc(C2(C)NC(=O)N(Cc3c(C)noc3C)C2=O)cc1 (centres undefined)	inconclusive [inhibitor, partial curve]	–
CC(C)(C)c1ccc(C(=O)Nc2cccc(C(=O)N3CCOCC3)c2)cc1	active: 5.62 µM	–
COc1ccc(S(=O)(=O)N2CCC(C(=O)N3CCN(c4ccccc4OC)CC3)CC2)cc1	inconclusive [inhibitor, full curve, poor fit]	–
CC(=O)Oc1ccccc1C(=O)C=Cc1cccc([N+](=O)[O-])c1	inconclusive [inhibitor, single point]	–
Cc1c2ccncc2c(C)c2c1[nH]c1ccccc12	inconclusive [inhibitor, full curve]	inactive: -10.1% [at 8.37 µM]

Structure (SMILES)	Potency	activity change, negative = inhibition
C[C@H](NC(=O)c1[nH]cnc1C(=O)Nc1ccc(Cl)cc1)c1ccccc1	–	inactive: 1.39%
CCOc1ccc2oc(C(=O)N(C)CCc3ccc(OC)c(OC)c3)c(C)c2c1	inconclusive [inhibitor, single point]	–
CCC1=NN(C(=O)c2ccc(Cl)cc2)C(O)(c2ccc(C)cc2)C1 (centres undefined)	inconclusive [inhibitor, single point]	–
O=c1cc(CN2CCN(Cc3ccccc3)CC2)c2cc3c(cc2o1)CCC3	inconclusive [inhibitor, partial curve]	–
Cc1cccc2nc(COc3ccc4ccccc4c3Br)cn12	–	inactive: -26%
O=C(O)C1CC2CCC1CC2 (centres undefined)	–	inactive: 18.7%
CC(=O)c1c(C)[nH]c(C(=O)OCC(=O)N2CCN(S(=O)(=O)c3ccc(C)cc3C)CC2)c1C	inconclusive [inhibitor, single point]	–
Cc1ccc(S(=O)(=O)N2CCCC2C(=O)Nc2ccc(O)cc2)cc1 (centres undefined)	–	inactive: 8.98%
Cc1ccc([C@@H]2[C@@H]3C(=O)N(c4ccccc4)C(=O)[C@@H]3[C@]3(C)C(=O)N(Cc4ccccc4)CC(=O)N23)o1	–	inactive: 4.02%
CCn1cc(CCCC(=O)NCc2ccc(OC)cc2)c2ccccc21	inconclusive [inhibitor, partial curve]	–
CNC(=S)NC1CC2CCC(C1)N2Cc1ccccc1 (centres undefined)	–	inactive: 16.1%
CC1Cn2c(nnc2-c2cc3ccccc3cc2O)S1 (centres undefined)	inconclusive [inhibitor, single point]	–
FC(F)(F)c1cc(-c2ccco2)nc(N2CCN(c3ccccc3)CC2)n1	inconclusive [inhibitor, partial curve, poor fit]	–
Cc1cc(C)nc(Sc2ccc3nnc(C(F)(F)C(F)(F)C(F)(F)F)n3n2)n1	inconclusive [inhibitor, partial curve, poor fit]	–
Cc1cc(N2CCN(Cc3nc(-c4ccc(Cl)cc4)oc3C)CC2)cc(C)n1	active: 2.24 µM	–
O=C(CNC(=O)c1cc(Cl)cc([N+](=O)[O-])c1)OCC(=O)N1CCCCC1	–	inactive: 12.7%
Cc1cc(C)n(-c2nc3ccccc3nc2N2CCN(S(=O)(=O)c3ccc4ccccc4c3)CC2)n1	–	inactive: -25.8%
O=C1CCCC2=C1C(c1ccc(Cl)cc1)C1C(=O)c3ccccc3C1=N2 (centres undefined)	inconclusive [inhibitor, partial curve]	–
COC(=O)[C@@H](Cc1ccccc1)NC(=O)Cn1cnc2c(SC)nc(N)nc21	–	inactive: -5.67%
COc1ccc(C)cc1Nc1n[n+](-c2ccccc2)c(-c2ccc(SC)cc2)s1	inconclusive [inhibitor, single point]	–
CC(N=C1CC(C)(C)CC(=O)/C1=C(/O)CCCN1C(=O)c2ccccc2C1=O)C(=O)O (centres undefined)	–	inactive: 12.5%
C/C(=N/NC(=O)OC(C)(C)C)c1ccco1	–	inactive: 8.86%
Cc1ccc(OCC(O)CN2CCC(Cc3ccccc3)CC2)c(C)c1 (centres undefined)	active: 11.2 µM	–
